Whole data set: some 33,000 sequences, median “E-score (-0.5 to 0.5)” near -0.035, cut for the highest 2% near 0.35. Some of the results follow.
molecular target: T1, Pdr3 (UniProt P33200); test: PBM E-score (8-mer binding enrichment) (E-score (-0.5 to 0.5)); higher = stronger / more preferred TF binding; most listed sequences are background and not binding sites; settings: protein concentration: 200 nM; construct: GST-full length
T1 sequence: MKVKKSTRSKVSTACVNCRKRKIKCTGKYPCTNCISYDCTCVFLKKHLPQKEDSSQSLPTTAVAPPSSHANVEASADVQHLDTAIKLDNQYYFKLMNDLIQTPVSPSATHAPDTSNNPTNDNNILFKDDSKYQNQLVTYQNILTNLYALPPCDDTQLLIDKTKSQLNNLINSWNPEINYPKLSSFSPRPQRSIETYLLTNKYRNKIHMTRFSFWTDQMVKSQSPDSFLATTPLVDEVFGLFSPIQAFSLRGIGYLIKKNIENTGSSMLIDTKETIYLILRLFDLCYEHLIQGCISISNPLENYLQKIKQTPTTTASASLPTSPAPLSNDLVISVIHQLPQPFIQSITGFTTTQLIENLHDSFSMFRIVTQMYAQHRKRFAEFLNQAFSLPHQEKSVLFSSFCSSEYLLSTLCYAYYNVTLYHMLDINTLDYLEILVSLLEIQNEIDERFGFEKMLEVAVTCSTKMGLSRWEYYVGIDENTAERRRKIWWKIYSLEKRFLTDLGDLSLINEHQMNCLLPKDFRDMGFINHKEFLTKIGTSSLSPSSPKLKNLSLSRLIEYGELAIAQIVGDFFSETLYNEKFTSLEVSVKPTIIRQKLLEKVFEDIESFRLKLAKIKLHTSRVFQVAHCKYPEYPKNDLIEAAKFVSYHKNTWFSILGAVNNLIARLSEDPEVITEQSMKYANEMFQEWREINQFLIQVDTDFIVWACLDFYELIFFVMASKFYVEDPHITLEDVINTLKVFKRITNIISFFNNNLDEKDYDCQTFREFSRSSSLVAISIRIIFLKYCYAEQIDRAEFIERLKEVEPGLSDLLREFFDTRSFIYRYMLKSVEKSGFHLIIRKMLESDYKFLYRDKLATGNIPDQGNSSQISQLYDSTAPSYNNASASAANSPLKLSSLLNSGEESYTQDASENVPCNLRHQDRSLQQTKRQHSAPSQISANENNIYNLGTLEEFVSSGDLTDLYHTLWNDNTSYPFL
Method: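 Universal 'all 10-mer' protein binding microarrays (Agilent AMADID 015681) probed with GST-tagged S. cerevisiae TFs (full-length or DBD) made by in vitro transcription/translation (PURExpress), about 100-200 nM. Bound TF was detected with fluorescent anti-GST. Each ungapped 8-mer (which stands for itself and its reverse complement) is scored by the PBM enrichment score (E-score), a modified Wilcoxon-Mann-Whitney statistic from -0.5 to +0.5, computed with the Universal PBM Analysis Suite. Scale: above 0.35 generally sequence-specific binding.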

Row | Sequence | PBM E-score
1 | ACGGCAGG | 0.0395
2 | ATTTACTA | 0.0272
3 | GTATATGA | 0.0321
4 | GGCCTACA | -0.0679
5 | CCGTACAG | 0.0992
6 | AAAATCGC | 0.0302
7 | CGGGGAAC | 0.258
8 | CCAAACTC | 0.0235
9 | AACGCTCG | 0.0169
10 | GATGGGGC | 0.0419
11 | CGACCTAC | -0.14
12 | ACCCGCGC | 0.353
13 | ATACCGTA | 0.0516
14 | GTCGGGTA | 0.19
15 | GGGTCTAA | -0.0709
16 | CTTAGATA | -0.0803
17 | ATGGCCAT | 0.163
18 | AATCGCCT | 0.0918
19 | CTGTTCGC | 0.05
20 | GTTACTAA | -0.243
21 | GCCCACCC | 0.119
22 | CTGGGGTA | -0.143
23 | CACTTTCC | 0.212
24 | ACCCGAAG | 0.147
25 | GCGTTAGC | -0.213

Row | Sequence | PBM E-score
26 | AACAATCA | -0.0618
27 | ATGAATTC | 0.0645
28 | AAACCCAA | 0.0475
29 | CAATCACA | -0.237
30 | ATCATAGG | -0.00823
31 | TGTGTAAA | 0.0265
32 | ACCGTAGT | 0.0824
33 | GACGTTAA | -0.0348
34 | TCAACTAA | -0.118
35 | ACGATAGG | -0.1
36 | AGAGTAAC | 0.0157
37 | GTCTGGCA | -5e-05
38 | AACTTAGG | -0.188
39 | GAGACGAC | 0.127
40 | CAAATTAC | -0.0508
41 | CTTAGGAA | -0.258
42 | TGTTCAAA | -0.0744
43 | AGGTGTCA | 0.0471
44 | GGGTGCGA | -0.0118
45 | CCATACAA | -0.123
46 | AAAAATCA | -0.0267
47 | GTTCAGGA | -0.0158
48 | CCGAAAAA | 0.3
49 | GATGGTAA | -0.127
50 | GACAGAGA | -0.153

Row | Sequence | PBM E-score
51 | CGACGTCG | -0.103
52 | GATTATCA | 0.0698
53 | AGTTGGCG | 0.125
54 | CGAAGTCG | -0.0357
55 | ACCATAGG | -0.229
56 | GAGTTAGA | -0.12
57 | AATAAAAA | 0.063
58 | CGCGTTTA | 0.037
59 | AAGGAGAC | -0.222
60 | AGGTAGCA | -0.188
61 | GGTAATAA | 0.165
62 | AGAGTCAA | -0.152
63 | AGCAATAT | -0.0613
64 | CTAATTAC | -0.0343
65 | CGAAGCCG | 0.266
66 | ACATGCTA | -0.0976
67 | CATGGGAA | 0.12
68 | ATGTACGG | 0.0336
69 | CTTGTGGA | -0.163
70 | AGTCGTAT | -0.268
71 | CGACCCTA | -0.0789
72 | CTTAAATA | -0.126
73 | GGTGACCA | -0.11
74 | GGCGGACA | 0.185
75 | ACTCCCCG | 0.306

Row | Sequence | PBM E-score
76 | AATTGCCG | 0.122
77 | GCCAGTTA | -0.00612
78 | ACCCATTA | 0.0069
79 | GCGTATCC | 0.00149
80 | CAAGTGTG | -0.113
81 | AAGGGGCT | -0.104
82 | GTGCTTGA | -0.16
83 | CGAACACG | 0.0492
84 | CCCACGCG | 0.0313
85 | GGCTTGGA | -0.266
86 | CCGATGCG | 0.203
87 | CGGTACGA | 0.0414
88 | CTTTACCC | -0.0933
89 | CATATTCA | -0.0969
90 | AGGGTGAA | -0.176
91 | CGGCATGA | 0.247
92 | CACTGATC | -0.176
93 | CGCCCTTA | -0.0281
94 | CCTGAAAC | 0.0656
95 | CTCTAGGC | -0.148
96 | CCGGACGG | 0.396
97 | GGAGACCA | 0.0972
98 | CTGCGTGC | -0.0812
99 | CCCTGCTC | -0.0867
100 | AAACAACT | 0.0279

Row | Sequence | PBM E-score
101 | CGGTCAGC | 0.0706
102 | AAATTAGC | -0.0765
103 | CACCTCCC | -0.0984
104 | GCCGAGCA | 0.0374
105 | GTATATCA | -0.0427
106 | AAAGAGGA | -0.131
107 | AGAAGGGA | -0.323
108 | GGAGGTTA | -0.0104
109 | ACGGCCGC | 0.313
110 | GGAAGGGA | 0.201
111 | CGAGTACC | 0.0734
112 | AGGCGCAC | 0.147
113 | CACTTCAA | 0.203
114 | AATGATAC | 0.0214
115 | CATTTGCC | -0.13
116 | ATACTGTA | 0.0259
117 | GACGTCTA | -0.129
118 | ACAACCGG | 0.234
119 | TTCTGAAA | -0.00916
120 | CAAAAGAC | -0.205
121 | ACTATATG | -0.113
122 | TTAGTGAA | -0.063
123 | AGAATCGG | 0.0495
124 | CAAGGCCC | 0.0552
125 | GAGGATGC | 0.00976

Row | Sequence | PBM E-score
126 | GATGCCCA | 0.012
127 | TACCAGGA | 0.0721
128 | AACCTCAG | -0.0334
129 | AAGCAAGG | -0.0242
130 | ATGTAGCA | -0.039
131 | TAAAGTCA | -0.101
132 | GGAAGCAC | 0.143
133 | AGGGGAAT | 0.187
134 | CGACTCAC | -0.0132
135 | CATATCCC | 0.107
136 | CTAGAGAA | -0.0805
137 | CTTAGAGA | -0.109
138 | CGCAAAAG | -0.058
139 | TATTGCAA | 0.286
140 | CGTACCTA | -0.136
141 | CTTCATTC | 0.00675
142 | ATATCTGG | 0.0589
143 | ACTACGAC | 0.0132
144 | CTCCGCAG | 0.206
145 | ATACGTGG | -0.0672
146 | CGTAGAAG | -0.079
147 | GGTTTGAC | 0.0587
148 | TAAATCCA | -0.00223
149 | CACCCTAC | -0.236
150 | CTGGCGCC | 0.175

Row | Sequence | PBM E-score
151 | CGTGATCC | 0.145
152 | CTGAGCTC | 0.0349
153 | CGGGGAGA | 0.28
154 | CCCTAAAG | -0.255
155 | GCATATAA | -0.159
156 | CTCGCTCA | 0.104
157 | CTGCCTTA | -0.209
158 | ATCGGATA | 0.325
159 | CACATTGC | -0.0131
160 | CGAAGGCC | -0.0056
161 | AGAGCGGG | 0.134
162 | AGGGCCCA | 0.11
163 | ACCCATCA | -0.129
164 | AACTGGCT | -0.25
165 | GTCCCCTA | -0.143
166 | CATACGAA | -0.00783
167 | CTTCCCGC | 0.29
168 | AGTGAACT | -0.0291
169 | AATAAATC | -0.132
170 | CCTAATCC | -0.068
171 | AAAAGGCG | -0.0675
172 | GATAAGGC | 0.0141

— the supplement of paper PMC3334620
